Results reported in article PMC10526831, “SUPPRESSOR OF MAX2 LIKE 6, 7, and 8 Interact with DDB1 BINDING WD REPEAT DOMAIN HYPERSENSITIVE TO ABA DEFICIENT 1 to Regulate the Drought Tolerance and Target SUCROSE NONFERMENTING 1 RELATED PROTEIN K”.
These are yes or no findings as the source states them, for the method shown. Binding seen in cells or lysates may run through a third protein. Some entries that bind do so weakly or less than the wild type. Tags and fused reporters may be left off the sequences shown.

How the values were obtained:
Test in all cases: split reporter; BiFC; nYFP and cYFP fusions co-infiltrated into N. benthamiana leaves; confocal microscopy of epidermal cells 2 days after infiltration
[1] = biological target: T1, SMXL3-nYFP (Arabidopsis thaliana) (UniProt Q9SVD0)
T1 sequence: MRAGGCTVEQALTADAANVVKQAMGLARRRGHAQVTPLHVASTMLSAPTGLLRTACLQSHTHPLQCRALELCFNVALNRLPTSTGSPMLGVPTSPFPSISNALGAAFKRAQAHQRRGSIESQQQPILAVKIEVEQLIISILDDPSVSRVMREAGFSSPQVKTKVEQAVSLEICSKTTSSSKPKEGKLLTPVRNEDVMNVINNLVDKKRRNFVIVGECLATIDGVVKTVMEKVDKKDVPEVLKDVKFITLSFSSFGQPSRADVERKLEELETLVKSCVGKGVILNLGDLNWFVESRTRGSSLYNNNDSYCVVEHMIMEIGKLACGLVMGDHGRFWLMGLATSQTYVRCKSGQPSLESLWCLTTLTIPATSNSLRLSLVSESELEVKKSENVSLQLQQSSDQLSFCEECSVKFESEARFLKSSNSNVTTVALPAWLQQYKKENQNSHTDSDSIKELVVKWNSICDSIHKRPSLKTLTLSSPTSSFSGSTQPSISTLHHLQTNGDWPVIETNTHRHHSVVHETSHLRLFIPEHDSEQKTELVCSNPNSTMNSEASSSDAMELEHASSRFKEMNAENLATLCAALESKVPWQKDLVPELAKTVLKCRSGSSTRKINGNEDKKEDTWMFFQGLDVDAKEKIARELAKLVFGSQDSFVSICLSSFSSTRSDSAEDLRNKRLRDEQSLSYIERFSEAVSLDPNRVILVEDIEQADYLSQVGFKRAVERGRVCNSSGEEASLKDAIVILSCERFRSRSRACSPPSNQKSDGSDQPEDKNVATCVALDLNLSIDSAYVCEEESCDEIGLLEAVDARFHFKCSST

[2] = biological target: T2, SMXL6-nYFP (Arabidopsis thaliana) (UniProt Q9LML2)
T2 sequence: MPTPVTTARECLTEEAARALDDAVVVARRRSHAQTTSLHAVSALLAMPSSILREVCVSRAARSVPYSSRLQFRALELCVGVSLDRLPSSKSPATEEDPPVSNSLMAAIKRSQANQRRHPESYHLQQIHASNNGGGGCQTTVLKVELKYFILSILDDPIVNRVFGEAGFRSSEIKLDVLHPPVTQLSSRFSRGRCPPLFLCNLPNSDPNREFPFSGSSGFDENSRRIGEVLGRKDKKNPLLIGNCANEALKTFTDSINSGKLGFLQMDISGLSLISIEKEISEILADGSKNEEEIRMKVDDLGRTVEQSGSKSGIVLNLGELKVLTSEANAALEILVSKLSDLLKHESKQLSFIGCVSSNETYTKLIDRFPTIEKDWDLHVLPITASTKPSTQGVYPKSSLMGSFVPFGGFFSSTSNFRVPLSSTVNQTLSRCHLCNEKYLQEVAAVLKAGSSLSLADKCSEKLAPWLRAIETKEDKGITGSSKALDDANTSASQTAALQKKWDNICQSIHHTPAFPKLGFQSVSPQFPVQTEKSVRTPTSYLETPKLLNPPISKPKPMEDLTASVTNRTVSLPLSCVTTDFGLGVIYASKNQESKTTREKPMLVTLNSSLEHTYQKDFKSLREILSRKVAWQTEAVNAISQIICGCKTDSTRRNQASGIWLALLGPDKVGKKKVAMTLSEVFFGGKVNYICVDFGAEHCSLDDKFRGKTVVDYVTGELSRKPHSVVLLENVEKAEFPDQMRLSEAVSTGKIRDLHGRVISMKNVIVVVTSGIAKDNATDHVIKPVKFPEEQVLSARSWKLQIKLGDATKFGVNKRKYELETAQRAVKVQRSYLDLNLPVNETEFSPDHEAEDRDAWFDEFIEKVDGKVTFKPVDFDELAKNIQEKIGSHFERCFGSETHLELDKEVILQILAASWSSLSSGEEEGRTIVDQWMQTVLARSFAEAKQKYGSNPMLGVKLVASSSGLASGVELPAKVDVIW

[3] = biological target: T3, SMXL7-nYFP (Arabidopsis thaliana) (UniProt O80875)
T3 sequence: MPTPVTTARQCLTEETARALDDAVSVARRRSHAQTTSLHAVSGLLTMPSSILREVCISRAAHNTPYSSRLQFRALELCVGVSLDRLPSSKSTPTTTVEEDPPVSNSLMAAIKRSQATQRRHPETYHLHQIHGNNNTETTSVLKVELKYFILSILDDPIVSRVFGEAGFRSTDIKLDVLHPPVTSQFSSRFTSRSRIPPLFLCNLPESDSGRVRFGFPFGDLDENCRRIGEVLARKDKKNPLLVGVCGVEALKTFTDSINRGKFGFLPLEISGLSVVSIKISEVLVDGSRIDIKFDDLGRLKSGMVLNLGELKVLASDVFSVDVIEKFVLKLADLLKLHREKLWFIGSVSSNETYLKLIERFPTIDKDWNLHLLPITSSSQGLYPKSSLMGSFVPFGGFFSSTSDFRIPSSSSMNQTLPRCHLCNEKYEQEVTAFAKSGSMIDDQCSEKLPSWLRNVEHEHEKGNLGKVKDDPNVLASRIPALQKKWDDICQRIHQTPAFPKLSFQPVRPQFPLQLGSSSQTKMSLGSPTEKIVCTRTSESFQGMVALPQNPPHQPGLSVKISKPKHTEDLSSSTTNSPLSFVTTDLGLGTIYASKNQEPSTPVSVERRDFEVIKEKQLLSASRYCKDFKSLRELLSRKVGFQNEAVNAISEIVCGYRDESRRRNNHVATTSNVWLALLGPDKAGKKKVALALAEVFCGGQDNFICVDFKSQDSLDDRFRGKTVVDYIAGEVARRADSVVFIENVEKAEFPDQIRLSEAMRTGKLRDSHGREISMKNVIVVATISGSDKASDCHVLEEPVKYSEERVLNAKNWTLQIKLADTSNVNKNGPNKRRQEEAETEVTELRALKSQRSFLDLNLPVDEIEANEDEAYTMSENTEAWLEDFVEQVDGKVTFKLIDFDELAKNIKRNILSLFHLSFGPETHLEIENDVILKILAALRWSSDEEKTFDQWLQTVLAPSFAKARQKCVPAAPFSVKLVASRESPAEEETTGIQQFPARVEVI

[4] = biological target: T4, SMXL8-nYFP (Arabidopsis thaliana) (UniProt F4IGZ2)
T4 sequence: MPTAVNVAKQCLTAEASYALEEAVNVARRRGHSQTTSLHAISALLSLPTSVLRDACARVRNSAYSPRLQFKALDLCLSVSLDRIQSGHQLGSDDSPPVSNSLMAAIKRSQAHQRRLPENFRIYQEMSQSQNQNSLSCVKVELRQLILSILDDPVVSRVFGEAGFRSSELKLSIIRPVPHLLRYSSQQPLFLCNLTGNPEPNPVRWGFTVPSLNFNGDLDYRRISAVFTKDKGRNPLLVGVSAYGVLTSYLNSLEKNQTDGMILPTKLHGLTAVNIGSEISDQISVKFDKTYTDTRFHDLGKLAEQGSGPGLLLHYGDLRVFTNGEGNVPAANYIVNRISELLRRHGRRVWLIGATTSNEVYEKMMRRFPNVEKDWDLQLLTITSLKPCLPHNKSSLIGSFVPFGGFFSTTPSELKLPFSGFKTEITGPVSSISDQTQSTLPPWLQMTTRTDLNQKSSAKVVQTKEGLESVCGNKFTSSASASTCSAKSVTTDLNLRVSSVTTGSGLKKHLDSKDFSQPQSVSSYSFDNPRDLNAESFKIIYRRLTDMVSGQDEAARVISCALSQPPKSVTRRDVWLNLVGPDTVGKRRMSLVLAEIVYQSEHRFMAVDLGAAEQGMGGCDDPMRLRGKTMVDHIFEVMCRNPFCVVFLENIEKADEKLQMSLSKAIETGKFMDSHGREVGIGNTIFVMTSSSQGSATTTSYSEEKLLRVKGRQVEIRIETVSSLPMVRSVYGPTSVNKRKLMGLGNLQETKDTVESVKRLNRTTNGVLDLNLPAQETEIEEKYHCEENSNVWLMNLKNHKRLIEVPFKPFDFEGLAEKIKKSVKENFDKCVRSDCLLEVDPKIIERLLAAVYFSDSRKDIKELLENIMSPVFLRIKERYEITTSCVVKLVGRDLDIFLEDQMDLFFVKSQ

binding [1]: no binding
binding [2]: binds
binding [3]: binds
binding [4]: binds
B1: DWA1-cYFP (protein, UniProt Q8L4M1 1-367)
chain: MYGDATNWNEDEYRESILKEREIETRTVFRTAWAPPARISNPDAFVVASSDGTLAFHSLNSLVSQSASFGYSKGQDVMVAEPERVVRAHEGPAYDVKFYGEDEDALLLSCGDDGRVRGWKWREFAESDVSLHLKENHLKPLLELINPQHKGPWGALSPMPEINAMSVDPQSGSVFTAAGDSCAYCWDVESGKIKMTFKGHSDYLHTVVSRSSASQILTGSEDGTARIWDCKTGKCVKVIGSQDKKSRLRVSSMALDGSESWLVCGQGKNLALWNLPASECVQTIPIPAHVQDVMFDEKQILTVGAEPLLRRFDLNGALLSQIHCAPCSVFSISLHPAGVVAVGGYGGIVDVISQFGSHLCTFRSSSL
